Whole data set: some 18,000 sequences, median “TetR repression strength (sort-seq, GFP reporter)” near 0.23, cut for the highest 2% near 0.68. The list shows a part of the results.

In this experiment the target is TetR (class B, Tn10) (UniProt P04483). Nature of the experiment: TetR repression strength (sort-seq, GFP reporter) (relative to tetO2 = 1); higher = stronger repression. As to conditions: E. coli. The method in brief: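 In LB with 50 µg/mL chloramphenicol, E. coli SIG10-MAX holding a low-copy library with eight randomized operator positions between a constitutive promoter and sfGFP, plus constitutive TetR, grew for 5 h at 37 °C. FACS then sorted 10^6 cells into 13 fluorescence bins for Illumina sequencing of each bin. Repression strength equals the top bin index plus one less the read-weighted mean bin, normalized to the unaltered operator. Values from three independent transformations were averaged when reads were ≥30 in every replicate and the CV was ≤0.5.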
Sequence of UniProt P04483 (P04483 whole entry): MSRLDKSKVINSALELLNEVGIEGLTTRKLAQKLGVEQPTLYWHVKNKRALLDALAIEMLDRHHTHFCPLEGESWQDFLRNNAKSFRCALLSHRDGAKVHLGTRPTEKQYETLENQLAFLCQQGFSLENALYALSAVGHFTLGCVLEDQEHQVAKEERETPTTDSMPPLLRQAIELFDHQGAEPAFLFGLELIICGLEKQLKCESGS
As to TCCCCTTGAGTCGGGGAGA, the TetR repression strength was 0.247.

TCCCGGCGAGTGCGCGAGA returned a TetR repression strength of 0.188.

For the sequence TCCCTTAGAGTACCAGAGA, the TetR repression strength stood at 0.18.

Turning to TCCCATAGAGTACTAGAGA, the TetR repression strength was 0.287.

In the case of TCCCGCTCAGTGCCAGAGA, the TetR repression strength amounted to 0.801.

In turn, TCCCGAGGAGTGACAGAGA came in with a TetR repression strength of 0.169.

In turn, TCCCACTAAGTTGGGGAGA yielded a TetR repression strength of 0.26.

TCCCGGTAAGTGACAGAGA: the TetR repression strength is 0.456.

The sequence TCCCGTATAGTGGGTGAGA registered a TetR repression strength of 0.0718.

On to TCCCTTTCAGTTAGAGAGA, for which the TetR repression strength is 0.136.

The sequence TCCCACCTAGTACGTGAGA returned a TetR repression strength of 0.381.

In turn, TCCCGCTGAGTGGGCGAGA had a TetR repression strength of 0.253.

For TCCCCGCAAGTGAGCGAGA, the TetR repression strength was determined as 0.591.

As to TCCCGGTCAGTCTGTGAGA, the TetR repression strength worked out at 0.287.

TCCCAAGGAGTGACGGAGA yielded a TetR repression strength of 0.372.

TCCCCGCCAGTGGTGGAGA showed a TetR repression strength of 0.0691.

With TCCCCATCAGTAGGTGAGA, the TetR repression strength was 0.33.

Sequence TCCCAAAGAGTAGGTGAGA had a TetR repression strength of 0.213.

TCCCTCAGAGTGGCGGAGA: the TetR repression strength is 0.183.

In the case of TCCCTATTAGTGTCGGAGA, the TetR repression strength was 0.219.

In turn, TCCCGAGTAGTGAGTGAGA came in with a TetR repression strength of 0.244.

In turn, TCCCTTAAAGTTAGGGAGA showed a TetR repression strength of 0.168.

TCCCAGGTAGTTTGAGAGA gave a TetR repression strength of 0.242.

The sequence TCCCTCCGAGTTGGTGAGA gave a TetR repression strength of 0.258.

TCCCCAGAAGTTGGGGAGA displayed a TetR repression strength of 0.208.

TCCCTCTGAGTCAAGGAGA came in with a TetR repression strength of 0.381.

TCCCTTCGAGTGGGCGAGA: the TetR repression strength amounted to 0.274.

For TCCCTGTAAGTCGCCGAGA, the TetR repression strength was 0.302.

In the case of TCCCATTGAGTTGGAGAGA, the TetR repression strength worked out at 0.244.

Consider TCCCAACTAGTGTTCGAGA, for which the TetR repression strength was 0.266.

TCCCTTTAAGTCGATGAGA registered a TetR repression strength of 0.197.

TCCCTTAGAGTGAGAGAGA had a TetR repression strength of 0.281.

As for TCCCGATTAGTCGACGAGA, the TetR repression strength amounted to 0.0975.

Regarding TCCCTTCGAGTCCGTGAGA, the TetR repression strength was 0.45.

TCCCGTGCAGTAGATGAGA displayed a TetR repression strength of 0.222.

In the case of TCCCTGTGAGTCCTGGAGA, the TetR repression strength was 0.342.

For TCCCGAGTAGTTATCGAGA, the TetR repression strength is 0.34.

Sequence TCCCGAGCAGTGAGTGAGA came in with a TetR repression strength of 0.507.

As for TCCCCAACAGTGGCCGAGA, the TetR repression strength turned out to be 0.104.

In turn, TCCCGTTAAGTGGTTGAGA displayed a TetR repression strength of 0.161.

Sequence TCCCTGCTAGTTGCCGAGA showed a TetR repression strength of 0.167.

On to TCCCACCGAGTGGCGGAGA, for which the TetR repression strength amounted to 0.335.

In the case of TCCCTGCTAGTGGGCGAGA, the TetR repression strength worked out at 0.115.

In turn, TCCCCCTTAGTTGGAGAGA showed a TetR repression strength of 0.316.

TCCCCGTAAGTAACAGAGA registered a TetR repression strength of 0.254.

Take TCCCGATGAGTCGTTGAGA: the TetR repression strength was determined as 0.249.

Sequence TCCCGTGTAGTGACAGAGA showed a TetR repression strength of 0.183.

TCCCTGGTAGTCAGAGAGA yielded a TetR repression strength of 0.184.

The sequence TCCCCTTAAGTATGCGAGA registered a TetR repression strength of 0.273.

In turn, TCCCGGAGAGTACAGGAGA returned a TetR repression strength of 0.218.

Turning to TCCCCGGCAGTCGCGGAGA, the TetR repression strength amounted to 0.261.

Sequence TCCCGTCTAGTGATGGAGA gave a TetR repression strength of 0.197.

Sequence TCCCACTGAGTGTTAGAGA had a TetR repression strength of 0.242.

Sequence TCCCCAATAGTTTCGGAGA yielded a TetR repression strength of 0.415.

Turning to TCCCGTAGAGTGCACGAGA, the TetR repression strength is 0.221.

TCCCGAGTAGTGCAGGAGA showed a TetR repression strength of 0.301.

Take TCCCGATGAGTAGTGGAGA: the TetR repression strength was found to be 0.166.

In turn, TCCCTAACAGTTCCGGAGA displayed a TetR repression strength of 0.216.

TCCCCAAGAGTCACGGAGA: the TetR repression strength stood at 0.102.

TCCCGCCCAGTGGGGGAGA gave a TetR repression strength of 0.291.

Sequence TCCCCGCCAGTAGTGGAGA returned a TetR repression strength of 0.291.

For TCCCCCTGAGTTATGGAGA, the TetR repression strength stood at 0.328.

With TCCCAAAAAGTGGCCGAGA, the TetR repression strength came out at 0.215.

TCCCGATAAGTCTAGGAGA came in with a TetR repression strength of 0.352.

For TCCCATGAAGTTCTAGAGA, the TetR repression strength amounted to 0.431.

TCCCTGATAGTTCGGGAGA: the TetR repression strength is 0.29.

The sequence TCCCAATAAGTAGGGGAGA returned a TetR repression strength of 0.508.

For TCCCTTTAAGTTGCGGAGA, the TetR repression strength amounted to 0.245.

TCCCCGGGAGTGGCCGAGA yielded a TetR repression strength of 0.135.

For TCCCCGGGAGTGTGGGAGA, the TetR repression strength stood at 0.207.

In turn, TCCCGGCAAGTGCGCGAGA showed a TetR repression strength of 0.0475.

The sequence TCCCGGGGAGTGGTAGAGA showed a TetR repression strength of 0.0745.

Consider TCCCGGAAAGTAGGGGAGA, for which the TetR repression strength came out at 0.188.

Sequence TCCCAATAAGTGGGAGAGA had a TetR repression strength of 0.323.

In turn, TCCCTGATAGTTGAGGAGA yielded a TetR repression strength of 0.211.

As to TCCCGTGGAGTGCGAGAGA, the TetR repression strength is 0.188.

In turn, TCCCTGGGAGTGCTTGAGA registered a TetR repression strength of 0.392.

On to TCCCGTGTAGTATCGGAGA, for which the TetR repression strength amounted to 0.166.

Take TCCCAGGGAGTAAAGGAGA: the TetR repression strength amounted to 0.188.

In the case of TCCCCGTGAGTTGGAGAGA, the TetR repression strength was determined as 0.319.

With TCCCGTGCAGTCGATGAGA, the TetR repression strength was 0.439.

Consider TCCCACGCAGTTGGGGAGA, for which the TetR repression strength is 0.0918.

TCCCAAATAGTCGGTGAGA yielded a TetR repression strength of 0.33.

Sequence TCCCTAGGAGTAACGGAGA came in with a TetR repression strength of 0.183.

With TCCCGTGAAGTCTTGGAGA, the TetR repression strength was 0.128.

The sequence TCCCTAAAAGTGGCGGAGA returned a TetR repression strength of 0.0467.

TCCCACGGAGTTCATGAGA had a TetR repression strength of 0.197.

TCCCCCTGAGTATCAGAGA came in with a TetR repression strength of 0.276.

Consider TCCCAATAAGTTTAAGAGA, for which the TetR repression strength is 0.228.

The sequence TCCCTGGCAGTCGAAGAGA registered a TetR repression strength of 0.189.

Sequence TCCCGGATAGTTGAGGAGA yielded a TetR repression strength of 0.175.

Sequence TCCCGTGAAGTGGGAGAGA returned a TetR repression strength of 0.155.

With TCCCAAGCAGTTTTCGAGA, the TetR repression strength turned out to be 0.255.

As for TCCCAGACAGTGTACGAGA, the TetR repression strength was 0.52.

Sequence TCCCATCGAGTATGTGAGA showed a TetR repression strength of 0.112.

TCCCTACGAGTGGAGGAGA registered a TetR repression strength of 0.304.

Sequence TCCCAATAAGTAGTGGAGA gave a TetR repression strength of 0.0218.

With TCCCGGCTAGTAGTGGAGA, the TetR repression strength was found to be 0.191.

Consider TCCCACGGAGTGAGGGAGA, for which the TetR repression strength came out at 0.186.

TCCCTGGCAGTGGTTGAGA returned a TetR repression strength of 0.173.

Sequence TCCCATCTAGTGTGGGAGA had a TetR repression strength of 1.06.

With TCCCTCGGAGTCTGAGAGA, the TetR repression strength is 1.02.

TCCCTATTAGTCGAAGAGA: the TetR repression strength stood at 0.089.

In the case of TCCCTAGGAGTAAATGAGA, the TetR repression strength was 0.132.

The sequence TCCCGGAAAGTCCGCGAGA showed a TetR repression strength of 0.195.

TCCCCTCCAGTGTAGGAGA came in with a TetR repression strength of 0.164.

Regarding TCCCGGGTAGTGAGGGAGA, the TetR repression strength worked out at 0.174.

Turning to TCCCTAGGAGTGTACGAGA, the TetR repression strength was found to be 0.238.

With TCCCTGGTAGTGTTGGAGA, the TetR repression strength is 0.225.

TCCCATTCAGTTGGCGAGA returned a TetR repression strength of 0.146.

TCCCGCGCAGTTGATGAGA: the TetR repression strength was 0.117.

TCCCAGATAGTAAGTGAGA: the TetR repression strength amounted to 0.219.

Sequence TCCCCTTTAGTCGGTGAGA displayed a TetR repression strength of 0.185.

In the case of TCCCGGGCAGTGATCGAGA, the TetR repression strength was 0.561.

The sequence TCCCCGCTAGTAGGAGAGA showed a TetR repression strength of 0.13.

For TCCCTTGTAGTGTAGGAGA, the TetR repression strength amounted to 0.174.

The sequence TCCCTTGGAGTGATGGAGA returned a TetR repression strength of 0.187.

For TCCCAGTTAGTCAGTGAGA, the TetR repression strength was found to be 0.209.

TCCCCTCCAGTGGATGAGA yielded a TetR repression strength of 0.0931.

Take TCCCACGCAGTGAGGGAGA: the TetR repression strength came to 0.0594.

For TCCCGGTCAGTGGACGAGA, the TetR repression strength was 0.132.

TCCCTATCAGTAGACGAGA yielded a TetR repression strength of 0.525.

TCCCGTTAAGTGGCAGAGA yielded a TetR repression strength of 0.292.

As to TCCCTTCCAGTTATTGAGA, the TetR repression strength worked out at 0.419.

TCCCGAGTAGTGGGAGAGA displayed a TetR repression strength of 0.0817.

As for TCCCTCCAAGTCCAAGAGA, the TetR repression strength was 0.622.

Regarding TCCCAATCAGTTTGGGAGA, the TetR repression strength stood at 0.168.

For the sequence TCCCGGAGAGTGGATGAGA, the TetR repression strength was 0.0613.

In the case of TCCCGAGCAGTGTTTGAGA, the TetR repression strength was 0.309.

TCCCAGTGAGTGTGGGAGA showed a TetR repression strength of 0.257.

The values above are taken from a collection of fitness landscapes (doi:10.1038/s41467-024-54723-y).
